From the RNAGym collection of RNA variant scans (doi:10.7554/elife.90254)
The source gives no read counts; variants with many changes may rest on few reads.

B1: LINE1-full (parent)
chain: UACGUAGGUGGUUUUCCCCUGAUAGUGCUAAGGGGGCCUGGAAGUUUGGACUGGGCAGAGCUCAACACAGCGUGGCAAAGUGGCUGUGGCUAGACUGCCUCUCUGGAUUCCUCGUCACUCAGCAGGGCAUCUCUGAGAGAAAUGCC

Variants of: B1
Test: self-cleavage, relative activity (ratio to wild type); higher = more cleavage; in vitro, sequencing; the parent is a self-cleaving ribozyme

Question: With UACGUAGGUGGUUUUCCCCUGAUAGUGCUAAAGGGGCCUGGAAGUUUGGACUGGGCAGAGCUCAACACAGCGUGGCAAAGUGGCUGUGGCUAGGCUGCCUCUCUGGAUUCCUCGUCACUCAGCAGGGCAUCUCUGAGAGAAGUGCC [G32A A94G A142G] as the variant, how does the self-cleavage read?
Answer: The self-cleavage was 0.33.

Question: With UACGUAGGUGGUUUUCCCCUGAUAGAGCUAAGGGGGCCUGGGAGUUUGGACUGGGCAGAGCCCAACACGGCGUGGCAAAGUGGCUGUGGCUAGACUGCCUCUCUGGAUUUCUCGUCACUCAGCAGGGCAUCUCGGAGAGAAGUGCC [U26A A42G U62C A69G C110U U134G A142G] as the variant, how does the self-cleavage read?
Answer: The self-cleavage was 0.

Question: With UACGUAGGUGGUUUUCCCCUUAUAGUGCUAAGGGGGCCUGGAAGUUUGGACUGGGCAGAGCUCGACGCAGCGUGGCAAAGUGGCUGUGGCUAGACUGCCUCUCUGGAUUCCUCGUCACUCAGCAGGGCAUCUCUGAGAGAAAUGCC [G21U A64G A67G] as the variant, how does the self-cleavage read?
Answer: Its self-cleavage is 0.

Question: With UACGUAGGUGGUUUUCCCCCGAUAGAGCUGAGGGGGCCUGGAAGUUUGGACUGGGCAGAGCUCAACACAGCGUGGCAAAGUGGCUGUGGCUAGACUGCCUCUCUGGAUUCCUCGUCACUCAGCAGGGCAUCUCUGAGAGAAGUGCC [U20C U26A A30G A142G] as the variant, how does the self-cleavage read?
Answer: The self-cleavage was 0.42.

Question: Which self-cleavage does the source give for UACGUAGGUGGUUUUCCCCUGAUAGUGCUAAGGGGGCCUGGAAGUUUGGACUGGGCAGAGCUCAACACAGCGUGGCAAAGUGGCUGUGGCUAGUCUGCCUCUCUGGAUUCCUCGUCACUCAGCAGGGCAUCUCUGAGGGAAAAGCC [A94U A138G U143A] here?
Answer: The self-cleavage was 0.33.

Question: With UACGUAGGUGGUUUUCCCCUGAUAGUGCUAAGGGGGCCAGGAAGUUUGGAUUGGGCAGAGCUCAACACAGCGUGGCAAAGUGGCUGUGGCUAGACUGCCUCUCUGGAUUUCUCGUCACUCAGCAGGGCAUCUCUGAGAGAAAUGCC [U39A C51U C110U] as the variant, how does the self-cleavage read?
Answer: The self-cleavage was 1.5.

Question: With UACGUAGGUGGUUUCCCCCUGAUAGUGCUAAAGUGGCCUGGAAGUUUGGACUGGGCAGGGCUCAACACAGCGUGGCAAAGUGGCUGUGGCUAGACUGCCUCUCUGGAUUCCUCGUCACUCUGCAGGGCAUCUCUGAGAGAAAUGCC [U15C G32A G34U A59G A121U] as the variant, how does the self-cleavage read?
Answer: Its self-cleavage is 0.08.

Question: Which self-cleavage does the source give for UACGUAGGUGGUUUCCCCCUGAUAGUGCUAAGGGGGCCUAGAAGUUAGGACUGGGCAGAGCUCAACACAGCGUGGCAAAGUGGCUGUGGCUAGACUGCCUCUCUGGAUUCCUCGUCACUCAGCAGGGCACCUCUGAGAGAAAUGCC [U15C G40A U47A U130C] here?
Answer: Its self-cleavage is 1.51.

Question: For UACGUAGGUGGCUUUCCCCUGAUAGUGCUAAGGGGGCCUCGAAGUUUGGACUGGGCAGAGCUCAACACAGCGUGGCAAAGUGGCUGUGGCUAGACUGCCUCUCUGGAUUCCUCGACACUCAGCAGGGCAUCUCUGAGAGAAAUGCC [U12C G40C U115A], which self-cleavage is on record?
Answer: Its self-cleavage is 2.35.

Question: For UACGUGGGUGGUCUUCCCCUGAUAGUGCUAAGGGGGCCUGGAAGUUUGGACUGGGCAGAGCUCAACACAGCGUGGCAAAGUGGCUGUGGCUAGACUGCCUCUCUGGAUUCCUCGUAACUCAGCAGGGCAUCUCUGAGAGAAAUGCC [A6G U13C C116A], which self-cleavage is on record?
Answer: The self-cleavage was 2.04.

Question: Which self-cleavage does the source give for UACGUAAGUGGUUCUCCCCUGAUAGUGCUAAGGGGGCCUGGAAGUUUGGACAGGGCAGAGCUCAACACAGCGUGGCAAAGUGGCUGUGGCUAGACCGCCUCUCUGGAUUCUUCGUCACUCAGCAGGGCAUCUCUGAGAGAAAUGCC [G7A U14C U52A U96C C111U] here?
Answer: Its self-cleavage is 0.05.

Question: For UACGUAGGUGGUUUUCCCCUGAUAGUGCUAAGGGGGCCUGGAAGUUUGGACUGGGCAGAGCUCAACACAGCGUGGCAAAGUGGCAGUGGCUAGACUGCCUCUCUGGAUUCCUCGUCACUCCGCAGGGCAUCUCUGAGAGAAACGCC [U85A A121C U143C], which self-cleavage is on record?
Answer: The self-cleavage was 0.1.

Question: For UACGUAGGUGGUUUUCCCCUGAUAGUGCUAAGGGGGCCUGGAAGUUUGGACUGGGCAGAGCUCAACACAGCGUGGCAAAGUGGCUGUGGCUAGACUGCCACUCUGGAUUCCCCGUCACUCAGCAGGGCAUCUCUGGGAGAAAUGCC [U100A U112C A136G], which self-cleavage is on record?
Answer: The self-cleavage was 1.17.

Question: Which self-cleavage does the source give for UACGUAGGUGGUUUUCCCCUGAUAGUGCUAAGGGGGCCUGGAAGUUUGGACUGGGCAGAGCUCAACACAGCGUGGCAAAGUGGCUGUGGCUAGACCGCCUCUCUGGAUUCCUCGACACUCAGCAGGGCAUCUCUGAGAGAGAUGCC [U96C U115A A141G] here?
Answer: The self-cleavage was 0.13.

Question: With UACGUAGGUGGUUUUCCCCUGAUAGUGCUAAGGGGGCCUGGAAGUUUGGACUGGGCAGAGCUCAACACUGCGUGGCAAGGUGGCUGUGGCUAGACUGCCUCCCUGGAUUCCUCGUCACUCAGCAGGGCAUCUCUGAGAGAAAUGCC [A69U A79G U102C] as the variant, how does the self-cleavage read?
Answer: The self-cleavage was 0.04.

Question: Which self-cleavage does the source give for UACGUAGGUGGUUUUCCUCUGACAGUGCUAAGGGGGCCUGGAAGUUUGGACUGGGCAGAGCUCAACACAGCGUGGCAAAGAGGCUGUGGCUAGACUGCCUCUCUGGAUUCCUCGUCACUCAGCAGGGCAUCUCUGAGAGAAAUGCC [C18U U23C U81A] here?
Answer: Its self-cleavage is 1.28.

Question: For UACGUAGGUGGUUUUCCCCUGAUAGCGCUAGGGGGGCCUGGAAGUUUGGACUGGGCAGAGCUCAACACAGCGUGGCAAAGUGGCUGUGGCUAGACUGCCUCUCUGGAUUCCUCGUCACUCAACAGGGCAUCUCUGAGAGAAAUGCC [U26C A31G G122A], which self-cleavage is on record?
Answer: Its self-cleavage is 0.74.

Question: Which self-cleavage does the source give for UACGUAGGUGGUUUACCCCUGAUAGUGCUAAGGGGGCCUGGAAGUUUGGACUGGGCAGAGCUCAACACAGCGUGGCAAAGUGGCUGUGGCUAGACUGCCUCUCUGGAUUCCUCGUCACUCAGCAGGGCGUCUCGGAGAGAAAUGCC [U15A A129G U134G] here?
Answer: The self-cleavage was 0.

Question: For UACGUAGGCGGUUUUCCCCUGAUAGUGCUAAGGGGGCCUGGAAGUUUGGACUGGGCAGAGCUCAACACAGCGUGGCAAAGUGGCUGUGGCCAGACUGCCUCUCUGGAUUCCUCGUCACUCAGCAGGGCAUCUCUGAGGGAAAUGCC [U9C U91C A138G], which self-cleavage is on record?
Answer: Its self-cleavage is 0.71.
